In the supplement of paper PMC11417369:
± gives the standard deviation of the averaged measurements. This is one part of the list.

The sequences below were run on PfAP2-I AP2 domain 3 (GST-tagged) (assay: gcPBM binding intensity (ln(normalized median fluorescence intensity)); higher = stronger DNA binding).
Outline: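 GST-fused DNA-binding domains of P. falciparum, expressed in E. coli, were applied at about 25 μg on average for 1 h to an Agilent 4 × 180k array of primer-extended double-stranded 36-bp intergenic genomic probes and negative controls. Binding intensity is the highest Masliner-normalised natural-log median intensity across replicate spots of either probe orientation, measured with Alexa488 anti-GST antibody and a 488 nm scan.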

Sequence	gcPBM binding intensity (ln)
AAAAACTTAATATTCACACATATATATATATATATA [CACACA_site5240]	9.38 ± 0.53
CGTATATATATATACACACACATATATATATGTAAA [CACACA_site195]	7.84 ± 0.47
TATTTCCATTCATAATTTTGTAGAATATATAACCGT [CACACA_negctrl_site1531]	7.64 ± 0.59
AAAAAAAAAAATTACACACATACATATAATAATAAT [CACACA_site2193]	7.59 ± 0.65
GGTAATTTTTTTTAAATACACACTGAAATGTGAATT [CACACA_site564]	8.01 ± 0.33
AACATACATAAACACACACACACACCCACAGAGACA [CACACA_site4430]	8.32 ± 0.22
AAAAAAATAAGTATTGAACAATTAAGGAAAAACATG [GTGCAC_negctrl_site464]	8 ± 0.56
CTTATAAAAAAAAAAACATGCAACAGTAAAGAACAA [TGCATGCA_site892]	8.13 ± 0.85
CATACAGATATATATACACACATACAGATAAATACA [CACACA_site4592]	8.03 ± 0.042
GGAATAGTAATATATACACACAAATACAGATATATA [CACACA_site4213]	7.66 ± 0.43
AATTGAATTTTAAAAGAAAAAAAAAAAAAAAAATAA [XGTACX_negctrl_site195]	7.74 ± 0.32
TGGAGGTCAGTTCACAGTACCCAGAAACTCTACGGA [XGTACX_site4927]	7.47 ± 0.63
TTTTTTCAATTTTTTTTAAATAAACCACAAAAAAAA [CACACA_negctrl_site1701]	7.74 ± 0.49
AAACTATAATATATTACACACATATATTTTATAAGT [CACACA_site6460]	7.69 ± 0.44
TAATGTAAAATTTAGAGTACATAAAAAATTGGATGA [XGTACX_site7225]	7.82 ± 0.71
AAATAAAAAAAGAAACGTACATATATTGGTTTCGTC [XGTACX_site3510]	7.85 ± 0.54
AATAAATAAATATATACACACATATCTGTCTACATA [CACACA_site5708]	7.63 ± 0.53
AATAATTGAAAAACACAAAAATGATTTTCCATAAAT [CACACA_negctrl_site1555]	7.34 ± 0.69
GTAAAAAAATAGCACACACACAAAAACACGCACAAA [CACACA_site6723]	8.94 ± 0.071
GGGACAGGACGAAAAAATAAATAAATAAATAAAAAA [CACACA_negctrl_site155]	7.99 ± 0.44
ACAAGATCTAGATACACACACATATCTCTCAATCTA [CACACA_site6453]	7.88 ± 0.79
TTTTTATTTATATATATATATATATATTATATATAA [CACACA_negctrl_site1654]	7.68 ± 0.53
ATCTAAATAATATATATATATAATATTAATAATATA [CACACA_negctrl_site1620]	7.44 ± 0.44
ATATATTATATAATATGTACATAATAAAATTTAAAT [XGTACX_site1900]	7.82 ± 0.4
CTTGTCATTGGGCACACACACATGTATAGGTTATTA [CACACA_site3058]	8.54 ± 0.45
GAGTAAACATATATATGTACATAAAGTTAACATTGC [XGTACX_site2225]	8 ± 0.47
ATTTTTTTTCATATAACACACACACTAATATAATGT [CACACA_site9226]	8.22 ± 0.4
TGAACACCCACAAATACACACAAAAAAAATAAATAA [CACACA_site248]	7.86 ± 0.43

Sequence	gcPBM binding intensity (ln)
AATCAAAAATCAAACGCATGTAGTATAATAGATAAG [TGCATGCA_site753]	7.81 ± 0.71
CAAATATAAATATATACATGCATCTATCTATATAAA [TGCATGCA_site369]	8.28 ± 0.5
AAATTGTAGCACCAAGCATGCTAAAAGGACATATGA [TGCATGCA_site717]	9.67 ± 0.11
ATTGGGTACAAATACACACACATATATATATTAATA [CACACA_site2376]	8.09 ± 0.2
TGTACCTTATTAATATATTTAACTCGCCTTATATAC [XGTACX_negctrl_site289]	7.87 ± 0.74
TCGTAAACATATTGAAAAATATAAAAAGGGGTAATA [CACACA_negctrl_site619]	7.84 ± 0.45
TTGTTAAAAGTATCCATTCTTTATTACTTTTGTTTA [XGTACX_negctrl_site532]	7.46 ± 0.6
AAATAAATACACATATGTACATATTTTATTTTATTT [XGTACX_site2357]	7.7 ± 0.52
TAAAAAAAATACAAAAGTACACAAAATTATACGTTA [XGTACX_site4656]	7.71 ± 0.39
AATGGTATAATCAATACACACATAATATATATATTG [CACACA_site1658]	7.61 ± 0.47
TTAAGATATGTATATCGTACATGACATTAAAAATTT [XGTACX_site3352]	7.54 ± 0.55
AAAAAAAAAAATATCACACACACATAAATATAAACC [CACACA_site2278]	8.27 ± 0.46
AAATTATATCAATGTTGTACATATTATTTTTTTCTC [XGTACX_site5948]	7.85 ± 0.48
AAAAAAAAAAAAAGGTGTACAAGTATAATTACATAA [XGTACX_site534]	8.07 ± 0.38
TATTTATTGTGATACTTTTATTGTTTAATGATTAAA [CACACA_negctrl_site495]	7.47 ± 0.45
TAGTATAAAATTATGTGTACACAAATATAACTTTTC [XGTACX_site5971]	8.52 ± 0.47
AAGATTAAAAATTGCACACAAAAATATATTTTCTAT [CACACA_site1305]	8.44 ± 0.42
AATTTCCTTTTTTAAAGTACACAAAAGTTCACTTTG [XGTACX_site4460]	7.82 ± 0.67
AAATTATATCATTTATTTTTTTATATTTTTTATATT [CACACA_negctrl_site685]	7.42 ± 0.69
TATAATTTATTAAGGGGTACATATATTTCATGATAA [XGTACX_site5141]	7.88 ± 0.37
TTATTCATTTTTATTTGTACATAATTATATGAAATT [XGTACX_site6389]	7.71 ± 0.57
TTTTATATTTTATGCACACTTATAAGAAATATGTAC [CACACA_site3040]	10.5 ± 0.52
TTATGTATTCATTTTTTTTAAGCACCCCAAAATGAT [CACACA_negctrl_site1344]	10.5 ± 0.62
ATAATATATATATAAACACACAAAAAAAATTATATA [CACACA_site1534]	7.78 ± 0.38
TATTTATTAAAACACACACACACACCCACAAAATAA [CACACA_site241]	8.41 ± 0.099
ATTTTTTTTTATGATACACACTTGGATAATTAAAAC [CACACA_site4473]	7.85 ± 0.58
CCACATGATATGATTACACACATATATATATTTACA [CACACA_site164]	7.87 ± 0.57
